Values quoted from earlier work, collected in article PMC11006913.
This is one part of the list.

Columns and labels:
Conditions in all cases: PBM; conditions not shown; double strand, one strand shown; scale: upbm affinity estimate (log intensity, higher = more binding, comparable within an allelic series)
ARX (Homo sapiens) = ARX (Homo sapiens) (UniProt Q96QS3)
ARX L343Q (Homo sapiens) = ARX L343Q (Homo sapiens) (UniProt Q96QS3)
ARX P353L (Homo sapiens) = ARX P353L (Homo sapiens) (UniProt Q96QS3)
ARX P353R (Homo sapiens) = ARX P353R (Homo sapiens) (UniProt Q96QS3)
ARX R332H (Homo sapiens) = ARX R332H (Homo sapiens) (UniProt Q96QS3)
ARX T333N (Homo sapiens) = ARX T333N (Homo sapiens) (UniProt Q96QS3)

| Sequence | binding signal (ARX (Homo sapiens)) | binding signal (ARX L343Q (Homo sapiens)) | binding signal (ARX P353L (Homo sapiens)) | binding signal (ARX P353R (Homo sapiens)) | binding signal (ARX R332H (Homo sapiens)) | binding signal (ARX T333N (Homo sapiens)) |
| --- | --- | --- | --- | --- | --- | --- |
| CTCCTCCC [8-mer CTCCTCCC] | 10.3 | 10.2 | 10.3 | 10.1 | 10.2 | 10.3 |
| CGGTCGCC [8-mer CGGTCGCC] | 10.3 | 10.1 | 10.2 | 10 | 10.1 | 10.2 |
| GCCCAGGC [8-mer GCCCAGGC] | 10 | 10 | 9.98 | 9.96 | 9.95 | 10.1 |
| CCGGGTAC [8-mer CCGGGTAC] | 10.1 | 10.2 | 10.2 | 10.1 | 10.1 | 10.2 |
| CTGCGCTC [8-mer CTGCGCTC] | 10.2 | 10.2 | 10.1 | 10.2 | 10.2 | 10.2 |
| GCGCAGCC [8-mer GCGCAGCC] | 10.1 | 10 | 10 | 9.94 | 9.99 | 10.1 |
| GCCACGGC [8-mer GCCACGGC] | 10.1 | 10.1 | 10.1 | 10.1 | 10.2 | 10.3 |
| CCACGCGC [8-mer CCACGCGC] | 10.2 | 10.1 | 10.2 | 10.1 | 10.1 | 10.2 |
| CTGGCCCA [8-mer CTGGCCCA] | 10.1 | 10.2 | 10.2 | 10.1 | 10.1 | 10.2 |
| ACCGGCAG [8-mer ACCGGCAG] | 10.2 | 10.3 | 10.2 | 10.1 | 10.2 | 10.2 |
| CCGGACCC [8-mer CCGGACCC] | 10.1 | 10.1 | 10.1 | 10 | 10 | 10.2 |
| GGCCACCC [8-mer GGCCACCC] | 10.1 | 10 | 10.2 | 9.99 | 10.1 | 10.2 |
| GGCCGAAC [8-mer GGCCGAAC] | 10.3 | 10.2 | 10.3 | 10.2 | 10.2 | 10.2 |
| GGCCGTGA [8-mer GGCCGTGA] | 10.3 | 10.3 | 10.2 | 10.2 | 10.3 | 10.4 |
| CCGGACCA [8-mer CCGGACCA] | 10.2 | 10.2 | 10.2 | 10.2 | 10.2 | 10.2 |
| GCCCCGCA [8-mer GCCCCGCA] | 10.1 | 10 | 10 | 9.99 | 10.1 | 10.2 |
| GCGGGAGC [8-mer GCGGGAGC] | 9.94 | 10.1 | 9.99 | 10.1 | 10 | 10.1 |
| ATAATTTA [8-mer ATAATTTA] | 12.3 | 10.9 | 11.9 | 10.8 | 11.1 | 11.7 |

| Sequence | binding signal (ARX (Homo sapiens)) | binding signal (ARX L343Q (Homo sapiens)) | binding signal (ARX P353L (Homo sapiens)) | binding signal (ARX P353R (Homo sapiens)) | binding signal (ARX R332H (Homo sapiens)) | binding signal (ARX T333N (Homo sapiens)) |
| --- | --- | --- | --- | --- | --- | --- |
| AGCTCGGG [8-mer AGCTCGGG] | 10.3 | 10.2 | 10.3 | 10.1 | 10.2 | 10.2 |
| GCTGGCCC [8-mer GCTGGCCC] | 10.2 | 10.1 | 10.2 | 10.1 | 10.1 | 10.2 |
| CGGGAAAG [8-mer CGGGAAAG] | 10.3 | 10.2 | 10.2 | 10.2 | 10.2 | 10.3 |
| CCCCTGCG [8-mer CCCCTGCG] | 10.2 | 10 | 10.2 | 9.98 | 10 | 10.2 |
| GCTTGTTA [8-mer GCTTGTTA] | 11.2 | 10.5 | 11.4 | 10.5 | 10.6 | 10.8 |
| GACCCCCA [8-mer GACCCCCA] | 10.2 | 10.1 | 10.2 | 9.93 | 9.93 | 10.2 |
| ACCCGGGT [8-mer ACCCGGGT] | 10.5 | 10.2 | 10.6 | 10.1 | 10.2 | 10.4 |
| GCAGCCGC [8-mer GCAGCCGC] | 10.3 | 10.1 | 10.2 | 10.1 | 10.1 | 10.3 |
| CCCCAAGG [8-mer CCCCAAGG] | 10.1 | 10.1 | 10.1 | 10.1 | 10.1 | 10.2 |
| CCCCACGC [8-mer CCCCACGC] | 10.1 | 10.1 | 10.1 | 9.95 | 10.1 | 10.2 |
| AAATTAAC [8-mer AAATTAAC] | 12.6 | 10.8 | 12 | 10.7 | 10.9 | 11.7 |
| GCCCCGGA [8-mer GCCCCGGA] | 10.2 | 10.2 | 10.2 | 10.2 | 10.3 | 10.3 |
| AGCGCCGC [8-mer AGCGCCGC] | 10.2 | 10.2 | 10.3 | 10.1 | 10.1 | 10.3 |
| CCAGACGG [8-mer CCAGACGG] | 10.2 | 10.2 | 10.2 | 10.2 | 10.1 | 10.2 |
| GAGGCCGC [8-mer GAGGCCGC] | 10.1 | 10.2 | 10.2 | 10.1 | 10.2 | 10.3 |
| GCTAATCA [8-mer GCTAATCA] | 12.6 | 10.8 | 12.2 | 10.8 | 10.9 | 11.5 |
| GCGCGAGC [8-mer GCGCGAGC] | 10.1 | 10.1 | 10.2 | 10.1 | 10.2 | 10.2 |
